# Laboratory results as given in the supplement of paper PMC8728848.
# This is one part of the list.
# B1: Als1 (Candida albicans), P46590 (protein)
# chain: KTITGVFDSFNSLTWSNAANYAFKGPGYPTWNAVLGWSLDGTSANPGDTFTLNMPCVFKYTTSQTSVDLTADGVKYATCQFYSGEEFTTFSTLTCTVNDALKSSIKAFGTVTLPIAFNVGGTGSSTDLEDSKCFTAGTNTVTFNDGDKDISIDVEFEKSTVDPSGYLYASRVMPSLNKVTTLFVAPQCENGYTSGTMGFSSSNGDVAIDCSNIHIGITKGLNDWNYPVSSESFSYTKTCTSNGIQIKYQNVPAGYRPFIDAYISATDVNQYTLAYTNDYTCAGSRLQSKPFTLRWTGYKNSDAGSNGIVIVATTRTVTDSTTAVTTLPFNPSVDKTKTIEILQPIPTTTITTSYVGVTTSYLTKTAPIGETATVIVDVPYHTTTTVTSEWTGTITTTTTRTNPTDSIDTVVVQVP
# Tests used:
# Assay in all cases: glycan array binding signal (z-score within array); higher = stronger binding
# Conditions in all cases: glycan notation: IUPAC condensed, linker removed
# [1] = molecular target: Neu5Ac(a2-8)Neu5Ac
# Outline: (§1)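 Negative Z-scores can be read as non-binding. The Z-score is calculated within each array and then averaged across arrays of one protein sequence at different concentrations or buffers and across linkers. Arrays, 3228 in all, were curated from the Consortium for Functional Glycomics database and kept only where the protein sequence was available.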
# [2] = molecular target: Neu5Ac(a2-8)Neu5Ac(a2-3)Gal(b1-3)GalNAc(b1-4)[Neu5Ac(a2-3)]Gal(b1-4)Glc
# Outline: as §1
# [3] = molecular target: Neu5Ac(a2-8)Neu5Ac(a2-3)Gal(b1-3)GalNAc(b1-4)[Neu5Ac(a2-8)Neu5Ac(a2-3)]Gal(b1-4)Glc
# Outline: as §1
# [4] = molecular target: Neu5Ac(a2-8)Neu5Ac(a2-3)Gal(b1-4)Glc
# Outline: as §1
# [5] = molecular target: Neu5Ac(a2-8)Neu5Ac(a2-3)Gal(b1-4)GlcNAc
# Outline: as §1
# [6] = molecular target: Neu5Ac(a2-8)Neu5Ac(a2-3)[Gal(b1-3)GalNAc(b1-4)]Gal(b1-4)Glc
# Outline: as §1
# [7] = molecular target: Neu5Ac(a2-8)Neu5Ac(a2-3)[GalNAc(b1-4)]Gal(b1-4)Glc
# Outline: as §1
# [8] = molecular target: Neu5Ac(a2-8)Neu5Ac(a2-8)Neu5Ac
# Outline: as §1
# [9] = molecular target: Neu5Ac(a2-8)Neu5Ac(a2-8)Neu5Ac(a2-3)Gal(b1-4)Glc
# Outline: as §1
# [10] = molecular target: Neu5Ac(a2-8)Neu5Ac(a2-8)Neu5Ac(a2-3)[Gal(b1-3)GalNAc(b1-4)]Gal(b1-4)Glc
# Outline: as §1
# [11] = molecular target: Neu5Ac(a2-8)Neu5Ac(a2-8)Neu5Ac(a2-3)[GalNAc(b1-4)]Gal(b1-4)Glc
# Outline: as §1
# [12] = molecular target: Neu5Ac(a2-8)Neu5Ac(a2-8)Neu5Ac(a2-8)Neu5Ac(a2-3)[GalNAc(b1-4)]Gal(b1-4)Glc
# Outline: as §1
# [13] = molecular target: Neu5Ac(a2-8)Neu5Gc(a2-3)Gal(b1-4)GlcNAc
# Outline: as §1
# [14] = molecular target: Neu5Ac(b2-6)Gal(b1-4)GlcNAc
# Outline: as §1
# [15] = molecular target: Neu5Ac(b2-6)GalNAc
# Outline: as §1
# [16] = molecular target: Neu5Ac9Ac(a2-3)Gal(b1-3)GlcNAc
# Outline: as §1
# [17] = molecular target: Neu5Ac9Ac(a2-3)Gal(b1-4)GlcNAc
# Outline: as §1
# [18] = molecular target: Neu5Ac9Ac(a2-6)Gal(b1-4)GlcNAc
# Outline: as §1
# [19] = molecular target: Neu5Gc(a2-3)Gal(b1-3)GlcNAc
# Outline: as §1
# [20] = molecular target: Neu5Gc(a2-3)Gal(b1-3)[Fuc(a1-4)]GlcNAc
# Outline: as §1
# [21] = molecular target: Neu5Gc(a2-3)Gal(b1-4)Glc
# Outline: as §1
# [22] = molecular target: Neu5Gc(a2-3)Gal(b1-4)GlcNAc
# Outline: as §1
# [23] = molecular target: Neu5Gc(a2-3)Gal(b1-4)GlcNAc(b1-3)Gal(b1-4)GlcNAc(b1-2)Man(a1-3)[Neu5Gc(a2-3)Gal(b1-4)GlcNAc(b1-3)Gal(b1-4)GlcNAc(b1-2)Man(a1-6)]Man(b1-4)GlcNAc(b1-4)GlcNAc
# Outline: as §1
# [24] = molecular target: Neu5Gc(a2-3)Gal(b1-4)[Fuc(a1-3)]GlcNAc
# Outline: as §1
# [25] = molecular target: Neu5Gc(a2-6)Gal(b1-4)GlcNAc
# Outline: as §1
# [26] = molecular target: Neu5Gc(a2-6)GalNAc
# Outline: as §1
# [27] = molecular target: Neu5Gc(a2-8)Neu5Ac(a2-3)Gal(b1-4)GlcNAc
# Outline: as §1
# [28] = molecular target: Neu5Gc(a2-8)Neu5Gc(a2-3)Gal(b1-4)GlcNAc
# Outline: as §1
# [29] = molecular target: Neu5Gc(a2-8)Neu5Gc(a2-3)Gal(b1-4)GlcNAc(b1-3)Gal(b1-4)GlcNAc
# Outline: as §1
# [30] = molecular target: Neu5Gc(a2-8)Neu5Gc(a2-6)Gal(b1-4)GlcNAc
# Outline: as §1
# [31] = molecular target: Neu5Gc(b2-6)Gal(b1-4)GlcNAc
# Outline: as §1
binder,measurement,setting,value
B1,glycan array binding signal (z-score),[1],-0.045
same,glycan array binding signal (z-score),[2],-0.627
same,glycan array binding signal (z-score),[3],-0.513
same,glycan array binding signal (z-score),[4],-0.226
same,glycan array binding signal (z-score),[5],1.4
same,glycan array binding signal (z-score),[6],-0.389
same,glycan array binding signal (z-score),[7],-0.372
same,glycan array binding signal (z-score),[8],-0.244
same,glycan array binding signal (z-score),[9],-0.083
same,glycan array binding signal (z-score),[10],0.612
same,glycan array binding signal (z-score),[11],-0.209
same,glycan array binding signal (z-score),[12],-0.38
same,glycan array binding signal (z-score),[13],-0.049
same,glycan array binding signal (z-score),[14],-0.341
same,glycan array binding signal (z-score),[15],0.73
same,glycan array binding signal (z-score),[16],-0.459
same,glycan array binding signal (z-score),[17],-0.53
same,glycan array binding signal (z-score),[18],-0.398
same,glycan array binding signal (z-score),[19],-0.535
same,glycan array binding signal (z-score),[20],-0.349
same,glycan array binding signal (z-score),[21],1.07
same,glycan array binding signal (z-score),[22],0.201
same,glycan array binding signal (z-score),[23],-0.622
same,glycan array binding signal (z-score),[24],0.975
same,glycan array binding signal (z-score),[25],-0.432
same,glycan array binding signal (z-score),[26],-0.745
same,glycan array binding signal (z-score),[27],4.63
same,glycan array binding signal (z-score),[28],0.794
same,glycan array binding signal (z-score),[29],0.407
same,glycan array binding signal (z-score),[30],0.851
same,glycan array binding signal (z-score),[31],0.473
